Measurements taken from the supplement of paper PMC11125491.
± gives the standard deviation of the averaged measurements. Growth of baker's yeast expressing single-residue variants of Pneumocystis jirovecii dihydrofolate reductase in 8.8 or 44 µM methotrexate (about 75% and 90% inhibition of the wild type). Selection coefficient per generation; 0 = like wild type, above 0 = less sensitive, below 0 = more sensitive or loss of function. No active / inactive call per row; the paper calls resistant above 0.220 (8.8 µM) or 0.243 (44 µM) together with a significance test. At 44 µM about 15% of codons end with one read or none, so the lowest values are floors (replicate rank correlation 0.74; 0.94 at 8.8 µM).

B1: UniProt A0EPZ9; numbered along this chain (parent)
chain: MDWQKSLTLIVALTLSRGIGLKNDLPWKLKSDMMFFSRVTSGLLVTRSTGQMNVVLMGRKTWESLPAHSRPLKNRINVVISRQEVLDLGGGAYHARSLDDALALLSQIYDSTSKIQLNRVFVIGGGELCKAAMEHSRLNRIIATVIHNEVDCDVFFPIDFRSSQSCLPWRKQDHSVLEAWVGSKVPQGKINENGFIYEFEMWIRDI

Variants of: B1
Assay: selection coefficient against synonymous wild-type codons (log2 per generation); higher = faster growth than wild type
Conditions: with Saccharomyces cerevisiae carrying the variant on a plasmid
Method: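 Pooled growth of yeast carrying single-residue variants of P. jirovecii dihydrofolate reductase (own DFR1 gene intact), two passages at 30 °C, three cultures, sequenced before and after. Codons with under 15 starting reads are left out; codons of one change are averaged.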

## MDWQKSLTLIVALTLSRGIGLKNDLPWKLKSDMMFFSRVTSGLLVTRSTGQMNVVLMGRKTWESLPAHSRPLKNRINVVISRQEVLDLGGGQYHARSLDDALALLSQIYDSTSKIQLNRVFVIGGGELCKAAMEHSRLNRIIATVIHNEVDCDVFFPIDFRSSQSCLPWRKQDHSVLEAWVGSKVPQGKINENGFIYEFEMWIRDI [A92Q]
Methotrexate 8.8 µM
  selection coefficient against synonymous wild-type codons (log2): -0.505 ± 0.014
Methotrexate 44 µM
  selection coefficient against synonymous wild-type codons (log2): -0.246 ± 0.06

## MDWQKSLTLIVALTLSRGIGLKNDLPWKLKSDMMFFSRVTSGLLVTRSTGQMNVVLMGRKTWESLPAHSRPLKNRINVVISRQEVLDLGGGRYHARSLDDALALLSQIYDSTSKIQLNRVFVIGGGELCKAAMEHSRLNRIIATVIHNEVDCDVFFPIDFRSSQSCLPWRKQDHSVLEAWVGSKVPQGKINENGFIYEFEMWIRDI [A92R]
Methotrexate 8.8 µM
  selection coefficient against synonymous wild-type codons (log2): -0.792 ± 0.047
Methotrexate 44 µM
  selection coefficient against synonymous wild-type codons (log2): -0.296 ± 0.14

## MDWQKSLTLIVALTLSRGIGLKNDLPWKLKSDMMFFSRVTSGLLVTRSTGQMNVVLMGRKTWESLPAHSRPLKNRINVVISRQEVLDLGGGSYHARSLDDALALLSQIYDSTSKIQLNRVFVIGGGELCKAAMEHSRLNRIIATVIHNEVDCDVFFPIDFRSSQSCLPWRKQDHSVLEAWVGSKVPQGKINENGFIYEFEMWIRDI [A92S]
Methotrexate 8.8 µM
  selection coefficient against synonymous wild-type codons (log2): -0.358 ± 0.055
Methotrexate 44 µM
  selection coefficient against synonymous wild-type codons (log2): -0.256 ± 0.068

## MDWQKSLTLIVALTLSRGIGLKNDLPWKLKSDMMFFSRVTSGLLVTRSTGQMNVVLMGRKTWESLPAHSRPLKNRINVVISRQEVLDLGGGTYHARSLDDALALLSQIYDSTSKIQLNRVFVIGGGELCKAAMEHSRLNRIIATVIHNEVDCDVFFPIDFRSSQSCLPWRKQDHSVLEAWVGSKVPQGKINENGFIYEFEMWIRDI [A92T]
Methotrexate 8.8 µM
  selection coefficient against synonymous wild-type codons (log2): -0.203 ± 0.025
Methotrexate 44 µM
  selection coefficient against synonymous wild-type codons (log2): -0.0847 ± 0.091

## MDWQKSLTLIVALTLSRGIGLKNDLPWKLKSDMMFFSRVTSGLLVTRSTGQMNVVLMGRKTWESLPAHSRPLKNRINVVISRQEVLDLGGGVYHARSLDDALALLSQIYDSTSKIQLNRVFVIGGGELCKAAMEHSRLNRIIATVIHNEVDCDVFFPIDFRSSQSCLPWRKQDHSVLEAWVGSKVPQGKINENGFIYEFEMWIRDI [A92V]
Methotrexate 8.8 µM
  selection coefficient against synonymous wild-type codons (log2): -0.203 ± 0.086
Methotrexate 44 µM
  selection coefficient against synonymous wild-type codons (log2): -0.201 ± 0.12

## MDWQKSLTLIVALTLSRGIGLKNDLPWKLKSDMMFFSRVTSGLLVTRSTGQMNVVLMGRKTWESLPAHSRPLKNRINVVISRQEVLDLGGGWYHARSLDDALALLSQIYDSTSKIQLNRVFVIGGGELCKAAMEHSRLNRIIATVIHNEVDCDVFFPIDFRSSQSCLPWRKQDHSVLEAWVGSKVPQGKINENGFIYEFEMWIRDI [A92W]
Methotrexate 8.8 µM
  selection coefficient against synonymous wild-type codons (log2): -0.536 ± 0.13
Methotrexate 44 µM
  selection coefficient against synonymous wild-type codons (log2): -0.327 ± 0.032

## MDWQKSLTLIVALTLSRGIGLKNDLPWKLKSDMMFFSRVTSGLLVTRSTGQMNVVLMGRKTWESLPAHSRPLKNRINVVISRQEVLDLGGGYYHARSLDDALALLSQIYDSTSKIQLNRVFVIGGGELCKAAMEHSRLNRIIATVIHNEVDCDVFFPIDFRSSQSCLPWRKQDHSVLEAWVGSKVPQGKINENGFIYEFEMWIRDI [A92Y]
Methotrexate 8.8 µM
  selection coefficient against synonymous wild-type codons (log2): -0.546 ± 0.19
Methotrexate 44 µM
  selection coefficient against synonymous wild-type codons (log2): -0.188 ± 0.031

## MDWQKSLTLIVALTLSRGIGLKNDLPWKLKSDMMFFSRVTSGLLVTRSTGQMNVVLMGRKTWESLPAHSRPLKNRINVVISRQEVLDLGGGAAHARSLDDALALLSQIYDSTSKIQLNRVFVIGGGELCKAAMEHSRLNRIIATVIHNEVDCDVFFPIDFRSSQSCLPWRKQDHSVLEAWVGSKVPQGKINENGFIYEFEMWIRDI [Y93A]
Methotrexate 8.8 µM
  selection coefficient against synonymous wild-type codons (log2): -0.603 ± 0.17
Methotrexate 44 µM
  selection coefficient against synonymous wild-type codons (log2): -0.173 ± 0.19
